About 6,000 (1.7%) of roughly 360,000 compounds were called active. The shares of active, inactive and inconclusive entries below differ from those in the screen. Calls come from the whole dose curve; as a rule, active = well fitted cell-killing curve with a large enough effect; inconclusive = small, poorly fitted or top-dose-only effect, or effect the other way; inactive = flat fitted curve, though single readings scatter. Potencies of inconclusive entries are left out as doubtful fits.
Assay: qHTS for induction of synthetic lethality in tumor cells producing 2HG: qHTS for the HT-1080-NT fibrosarcoma cell line;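 note: NT is the 2HG producing partner of a matched IDH1 knockdown line; nearly all actives have a fitted effect of over 55% in size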;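 for activity, negative = less viability: 0% = DMSO-treated cells and -100% = media-only wells without cells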
Settings: HT-1080-NT fibrosarcoma viability, CellTiter-Glo ATP luminescence, 48 h; activity, negative = less viability: at 46.1 µM (top of the series) unless noted
Outline: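 Viability by CellTiter-Glo luminescence after 48 h compound exposure at 37C of HT-1080-NT cells (750/well, RPMI, 5% FBS). % activity scaled between DMSO wells and medium-only wells, then curve-fitted and categorized by curve class.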
Potency is the fitted concentration of half-maximal effect; tags give direction and shape of the fitted curve.

| Compound | Potency | activity, negative = less viability |
| --- | --- | --- |
| O=C1C(Nc2ccc(O)cc2)=C/C(=N/S(=O)(=O)c2cccs2)c2ccccc21 | active: 2.31 µM |  |
| CC(=O)OC(C)(C)/C=C/C(=O)[C@](C)(O)C1[C@H](O)C[C@@]2(C)C3CC=C4C(C=C(O[C@@H]5O[C@H](CO)[C@@H](O)[C@H](O)[C@H]5O)C(=O)C4(C)C)[C@]3(C)C(=O)C[C@]12C (stereo not given in full) | inconclusive [cytotoxic, single point] |  |
| COc1cc2[nH]c(=S)nc(NCc3cccs3)c2cc1OC | inactive |  |
| CCN(CC)CCNC(=O)CSc1c2c(nc3cc(Cl)ccc13)CCCC2 | inconclusive [cytotoxic, single point] |  |
| COC(=O)CNC(c1ccccc1)c1cc(Br)ccc1NC(=O)CNC(=O)OCc1ccccc1 (stereo not given) | inconclusive [cytotoxic, single point] |  |
| Nc1nc(OCc2ccccc2)c2[nH]cnc2n1 | inactive |  |
| Cc1ccc(NC(=O)COC(=O)CCc2ccc(S(=O)(=O)N3CCOCC3)cc2)cc1F | inactive |  |
| S=c1[nH]c2ccc(Cc3ccc4[nH]c(=S)[nH]c4c3)cc2[nH]1 | inconclusive [cytotoxic, single point] |  |
| CCOC(=O)CCC(=O)Nc1ccccc1C(N)=O | inactive |  |
| CCCC(=O)Nc1ccc2c(c1)nc(CN1CCN(C(=O)OCC)CC1)n2CC | inconclusive [cytotoxic, partial curve] |  |
| CCN1CCN(c2ccc(S(=O)(=O)N3CCOCC3)cc2NC(=O)COc2ccc(F)cc2Cl)CC1 | inactive |  |
| Cc1ccc(S(=O)(=O)Cc2cc(F)c([N+](=O)[O-])cc2[N+](=O)[O-])cc1 | active: 2.91 µM |  |
| CC(NC(=S)NCc1ccc(F)cc1)C12CC3CC(CC(C3)C1)C2 (stereo not given) | inconclusive [cytotoxic, single point] |  |
| Cc1ccc(NC(=O)CSc2nc(=O)n(CCCN3CCOCC3)c3c2CCCC3)c(C)c1 | inactive |  |
| Cc1ccc(C)c(Sc2ccc(NC(=O)CCN3C(=O)NC4(CCCC4)C3=O)cc2)c1 | inconclusive [cytotoxic, single point] |  |
| CCc1noc(C)c1C(=O)Nc1nc(-c2ccc(OC)cc2OC)cs1 | inactive |  |
| COc1ccc(NC(=O)c2cccc(S(=O)(=O)N3CCCCCC3)c2)cc1 | inconclusive [cytotoxic, partial curve] |  |
| CCOC(=O)C1CCN(Cc2cc(Cl)c3ccccc3c2O)CC1 | inconclusive [cytotoxic, single point] |  |
| Cc1cc(C)n(-c2nnc(C)n2/N=C/c2ccccc2O)n1 | inactive |  |
| CCN1CC(CN(C)Cc2cn(-c3ccc(C)cc3)nc2-c2cccc(C)c2)CC1=O (stereo not given) | inactive |  |
| Cc1ccc(C2NC(c3ccc(C)cc3)C(C)C(=NO)C2C)cc1 (stereo not given) | inconclusive [cytotoxic, single point] |  |
| CCCCN(CCCC)S(=O)(=O)c1ccc(NC(=O)c2cccs2)cc1 | inconclusive [cytotoxic, single point] |  |
| CCOc1cc(CO)cc(Br)c1OCC(=O)Nc1ccccc1C | inactive |  |

| Compound | Potency | activity, negative = less viability |
| --- | --- | --- |
| CNc1nc(SCc2ccc(C)cc2)nc2c1CCCC2 | inconclusive [cytotoxic, single point] |  |
| CCOc1ccc(C(=O)COC(=O)Cc2n[nH]c(=O)c3ccccc23)cc1 | active: 6.51 µM |  |
| O=C(Nc1ccncc1)c1ccc(Cl)c(S(=O)(=O)N2CCCC2)c1 | inconclusive [cytotoxic, single point] |  |
| O=C(NCC(F)(F)F)c1cc2c(c(-c3cccc(-c4ccccc4F)c3)n1)[C@@H](CCO)N(C(=O)CC1CC1)C2 | inconclusive [cytotoxic, single point] |  |
| Cc1cc(Cl)ccc1NC(=S)NC1CCCC1 | inactive |  |
| CCN(CC(=O)Nc1ccccc1OC)CC(=O)Nc1ccccc1-c1ccccc1 | active: 14.6 µM |  |
| O=C(Nc1cccc(-c2cnc3ccccc3n2)c1)c1cccc(NC(=O)c2ccco2)c1 | inconclusive [cytotoxic, single point] |  |
| N#CC1=C(SCC(=O)c2ccc(Cl)cc2)NC2=C(C(=O)CCC2)C1c1ccco1 (stereo not given) | active: 18.4 µM |  |
| CCOC(=O)c1cccc(N/C=C/C(=O)c2ccc(OC)c(OC)c2)c1 | inconclusive [cytotoxic, single point] |  |
| COc1ccc(CSc2nc(CSC)cc(N3CCOCC3)n2)cc1 | inconclusive [cytotoxic, single point] |  |
| COc1ccc(C(=O)NNc2ccccc2)cc1 | inconclusive [cytotoxic, single point] |  |
| COc1cccc(C=NNc2nnc(NN=Cc3cccc(OC)c3OC)c3ccccc23)c1OC | inactive |  |
| Fc1ccccc1NC(=S)N/N=C/c1ccccc1Br | active: 7.08 µM |  |
| COc1ccccc1C(c1nnnn1C(C)(C)C)N1CCN(Cc2ccncc2)CC1 (stereo not given) | inactive |  |
| CCOc1cc(C2NN=C(c3ccc(C)cc3)S2)ccc1O (stereo not given) | inactive |  |
| COC(=O)c1cnn2c(C(F)(F)F)cc(-c3ccc(F)cc3)nc12 |  | inconclusive: 32.7% |
| CC[C@]12c3[nH]c4ccc(Cl)cc4c3CCN1C(=O)[C@@H](CC(=O)NCC13CC4CC(CC(C4)C1)C3)C[C@@H]2C(=O)N1CCN(C(=O)c2ccco2)CC1 | inconclusive [cytotoxic, partial curve] |  |
| Cc1ccc(C)c(S(=O)(=O)N2CCN(Cc3ccc(O)c4ncccc34)CC2)c1 | inconclusive [cytotoxic, single point] |  |
| CCc1cc2c(COC(=O)c3cc(S(=O)(=O)N4CCOCC4)ccc3F)cc(=O)oc2cc1O | inconclusive [cytotoxic, single point] |  |
| OC(CNCc1ccco1)Cn1c2ccc(Br)cc2c2cc(Br)ccc21 (stereo not given) | inconclusive [cytotoxic, partial curve] |  |
| Cc1ccc(NC(=O)Cn2cc(C(=O)C3CC3)c3ccccc32)cc1 | inactive |  |
| Cc1cc(NC(=O)c2ccc(Cl)c(S(=O)(=O)N3CCOCC3)c2)no1 | inconclusive [rising, single point] |  |

— PubChem BioAssay AID686970 (National Center for Advancing Translational Sciences (NCATS), 2013)
